# According to article PMC10726135:
# Some of the results follow. At the low end of the ranking, values are background and their order means little. The protein was read in a cell extract, so binding may be indirect.
# Target: T1, HNF4alpha8 (COS-7 nuclear extract) (UniProt P41235-5)
# T1 sequence: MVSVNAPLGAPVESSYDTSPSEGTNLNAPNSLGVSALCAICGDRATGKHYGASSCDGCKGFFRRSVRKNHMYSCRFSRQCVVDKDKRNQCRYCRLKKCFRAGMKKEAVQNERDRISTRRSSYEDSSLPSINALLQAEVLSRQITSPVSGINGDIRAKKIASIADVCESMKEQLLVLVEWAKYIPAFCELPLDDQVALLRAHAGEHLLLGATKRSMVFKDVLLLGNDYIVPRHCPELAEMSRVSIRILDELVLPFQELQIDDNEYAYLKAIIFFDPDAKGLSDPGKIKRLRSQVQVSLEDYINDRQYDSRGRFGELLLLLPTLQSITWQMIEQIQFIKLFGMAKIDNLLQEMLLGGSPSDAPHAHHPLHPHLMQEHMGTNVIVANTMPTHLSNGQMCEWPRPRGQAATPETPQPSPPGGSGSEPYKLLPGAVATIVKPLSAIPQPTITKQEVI
# Assay: protein-binding microarray
# Settings: COS-7 nuclear extract on double-stranded Agilent 4x180k PBM; binding buffer, salt, pH and temperature not given; high values mean tight binding; double strand, one strand shown; sequences stand for … in …GCCTAGGGAGATTAGAGTATCGGTCGA
row,Sequence,binding signal (log2 normalized intensity)
1,CCCAAATAGACTTAAGTCTGAATTCTAGTC,0.0755
2,ATATGCCGAGAATGCAGCCTTATCTTCCAG,-1.23
3,CTGTGGTCATTAATTAACTTGTGTTCAGAG,1.07
4,GTAGGCTCTCGGGCCAGCTGTACAAATAAA,-1.41
5,CCAGCATTTCTGTGGACTGCTCCAGTGGAC,1.22
6,GGAATGTTGCTGTGCTGCCCTCTTGTGGCC,2.61
7,GAGTCGTGGCCTTGCCATTGGAGGTCACCC,3.15
8,GATCTTCATGAACTTCTGTCCACAGACTCT,0.169
9,AAGGACATTGCCCCCTATGTAAAGGCCTTT,3.97
10,ACCCCCCAGAGGGCCATCTAGCTTAAAGGT,1.67
11,TGATGAACTTTCAAGATGAAGCAAGAGTCC,1.49
12,TTACCTAAGGAAGTTAACCCCATCACCCAT,3.42
13,TGGACTGTTCAAGACCAAAGGTCATGGCAA,5.58
14,AAACATCAAGGAAGAGAACTCCCTATCCCC,1.36
15,TGAGTTTTCCATTTACCTCCGCTGAACCTA,1.76
16,ATCCGGCTGGCAGCCGATTGACCTGACCCA,3.71
17,GTGGGGTGGAAGCTATGCCTGAGGCTGAGG,-1.26
18,TTCTGCCCTGCCCTCAGGGAATCCTGCATT,0.864
19,CCGTGGGGCTCCTTTGATCTCCGTGTTTGG,1.68
20,TTGGACTTTGACCTCCAAAATTATAAGTCA,8.58
21,TGCTGAGCAACTATAAAACAGGAAAAAGGG,-1.44
22,TAAAAAGAAGCTTGGTATGTCTGATGAATA,-0.164
23,ACTCGTGAAAAGAGTGATCTTTGGGCCATA,2.28
24,ACCTGCATCTGCCCAGCAGAGCAGTTTAGA,-1.3
25,TGCCTCTCCAAACAAATTGAGAAAGATTAA,-1.2

row,Sequence,binding signal (log2 normalized intensity)
1,TGCAATGTTAGTCTGGGAAAGCTGCAGGCA,-1.22
2,GAGAATCCCTCCCCTGTGCAAACTTTTTCC,2.26
3,GTTGAAATCCATTGTCAATACCCTGTTATT,1.02
4,CAAAAATGATACCCCAGAGTACAGCACTTT,1.2
5,AATTCCAGTTACAAACAAAACAAACTAAAC,-1.32
6,CCAAGTCTGGACCTGCTGGCTTTCTTTGGA,0.912
7,CTTTGTGTACAAAGCCATCAGCACTGGTTC,-0.19
8,TTCCTTCTTCTTCTGGGGACTTCGGTCTTT,4.12
9,ATGATAATGCCAAGGACTGAAAGAACACAG,-1.36
10,GGAAGGATGAATTTAAAAAATTCTAGAGTT,-1.31
11,TTCAAAGTTTTTCCCCTTGGTGGATTCCGT,2.17
12,GCAATGTGTCAGAGAAGGAGCCAGAGCTTT,-1.17
13,TGGATGGAATGTTCTGAATCTATCTGTTAG,0.644
14,ACCTAAGATGTCACAGGCAAGCAAGTGACA,-1.32
15,ACCATTAACCCTACAGTCCTGCCACATCCC,-0.385
16,GGTTTAAAGTTCAAGTCATAACTGGATGGT,1.84
17,AGGCCTCGGCTTCATTAGCAAATAACAAAG,-1.36
18,CCGTGGACTCTGCCTGCCCTCTCCATGCAG,1.39
19,TCAGACGCCCTATGGCGTCCGCCTCGACCC,2.16
20,CCTCAAGGAGTTTTAGATTAGGAGAGGGAG,-1.31
21,GAGACAGACAGAAAACAAACATTAGCTGCA,-1.25
22,ACAGTCCACTTTGAATCAGGAGAGCATCTG,-1.17
23,CTGGCTATTCAGTTTTTATTTTGTATTCTT,1.4
24,TCCCACTCTTGGGTCAACATAATATTTAGC,-0.31
25,CAGCAGCTCAGTAAATTATCTTGATGGTTA,-0.169

row,Sequence,binding signal (log2 normalized intensity)
1,ATTGGCCCTTTGACCTTTAATCAAGGGCTG,5.91
2,AACTTCTGTCCACAGACTCTGACTGTTATC,0.245
3,GACTGACCTTTGATCATTTGAGGGTGACAC,6.1
4,AACACTTACACCTGGGTGCTCCCTCCCCCT,4.49
5,CTTATCTTCTCCACAGATTCCTGTTAACTT,0.847
6,GCAGAAGCAGGCCTCGGGCCTGCGAGGTTA,-1.25
7,TGAAGCCATCCTCCCACCTCAGCCTCTTGA,1.43
8,TAGGGCTCGGCATTCAGACAGACCCAGGGG,-1.24
9,CTTGTGTAATAACGAGACCTTAGCCCTGAA,-0.451
10,GTTTAACTGACCCAGGGAGAAAGGTCAGGG,3.67
11,CAACCGTCCAGAGTCCACGTACTTAACTAC,2.21
12,GCTGTTTTCTCCAGTGCCCTTAGGGGCCGC,1.84
13,GGTTCTCAGACCACCAGCTGCTTCGGCCAG,-1.23
14,TCCTTCCCCTTTTGTGTTTGTCCCTTTCTT,2.77
15,CGCCCCCCAGCGGAAGTCCAGTGGTGTCTT,3.56
16,GGATGGATCAAAGGAAACTGCTTGGGCCCC,-1.39
17,TGTTTGGGGCAGGCAGGGGATGAGATCTGA,-1.27
18,CAGATGAAAGGCGGCAACTTCTTCAGCCTA,-1.41
19,GCTGAGGAAGACTTCATTCAGGTAGCAGGC,-1.39
20,GCGCTGCTCGCAAGCAGAACCTTGGAGGCG,-1.13
21,CACTTGCTATTTGCATCAGCAGAGGACAGA,-1.09
22,TTCAGCAAACAAAGGCACTTCTCTCTCCAA,-1.34
23,CTTTGATCAGCAATGGAGAGTGATCAGATA,0.787
24,CCCTCTGACCAGAGACATTCCAACCCTGCC,-0.4
25,CAAACCCAGTTTGCATTTTCATGGACAGAG,0.658

row,Sequence,binding signal (log2 normalized intensity)
1,TGGCCTGATTTGACAAGGCAGAGGTGATTT,0.405
2,GGTTAAAGTCCAATCTTCTGGCCCCATCTA,4.42
3,CTATAAATACGCCTCGCCCGAGCTGTGCGG,-1.34
4,ACCCTTGAGCTAAGTCCCAAGGGATAGGCA,-1.26
5,AGTCTTCCTGTCTCCATTGCCTCACCTCTC,1.12
6,GTATGTCTGGGATTTGAAGGAGCAGAATAA,-1.17
7,ACTTTGGACCCACTGCAGGATTGGAGATCT,1.57
8,AAGCCCTACAGCCCACAATTGCATGTTCAA,-1.19
9,TGTAATTGCTTAAACCTAGCTACTAGCCAT,-1.22
10,GCTAAGAAGACCAACAGGTGAAGACATGCT,-1.23
11,TCAGTGTACTTAAAAATGCCTTTCATCTTT,1.06
12,ACAACATACCACAATAAAGTATACAAGGGA,-1.2
13,CTCTACCGTCCTCCCCCACGACAGAATTGA,4.7
14,AGTTGTTTGCAGAGGGAAAGCGAGAGAGCC,-1.29
15,GGCGCCGCTCTGAGTGACCTTTCACCCGCG,7.77
16,CTTGAAGCAGAAAACCACTGTGCTCTGAAA,-1.3
17,CCTTCAAGTCTGAGATGAAGAGGCCAGGGG,-0.871
18,GTGAAGGTCACAATTTCCAGGAGTATGTGT,1.26
19,TTTTCAATCTTATTTTTACTATGTGGCATT,1.35
20,CTCCCACCTCAGCCTCTTGAGTAGCTGGGA,-1.27
21,AAAGATTGCAGCAAGGAATTCAACCCTTGT,2.23
22,AGAAGCAAATGAAAAGAATATCTCAGCAGC,-1.21
23,TGGCAAGGCAGCCTCAGCCACACGCCCATC,-1.33
24,CCTATGTCCCCCGACCCGCCCGACTACAAC,5.28
25,GCTCTTGGCTAAGACAGGGGCTATTTCTGA,-1.29

row,Sequence,binding signal (log2 normalized intensity)
1,GCAAACCAGATAAGACTATCTCATGACAGA,-0.923
2,AAAGAGCAGATGTGTCTTTATAACAGACTG,-0.498
3,TCCCACTCCCCTCCTCCAGATGGGCTCATG,3.76
4,TTTCTCTTATAGCTCAACCCCCAAAACTGC,4.94
5,CTTATTTATCTTCACATTCCATCATCACGG,0.518
6,AGGCCTGAAATTTGGCCTGCTGAGCCCAAT,-1.02
7,AACCTTTGCCCCTGGAGGGAGACATTATCT,4.87
8,CAACTCAACCCTGGCATAGCATGCCACGAT,-1.22
9,AATGGAGCAAAGGTCATCCTGGGCTACCGA,5.44
10,TCTGCAAGTGAAAAAAATCCTTTTATTTAT,-0.773
11,CCAGTCCAGATATAGGGGAGGTCCTAAAGA,-1.26
12,GAAAAGGGAGTAAAGGTCACGCAGGCCACC,4.32
13,CCTTGGGTCTGTAATCTCACAACTCAGAAG,-0.129
14,TCTGGGCAAAGTTCACCAGGAAGCAAGACA,3.55
15,TATCTCCTATGAGCCAAACACCATGCTAGG,-1.35
16,AAAGGGAGCATATGTATGTCAGAGTATGTG,1.6
17,TTGTACTCAGTATGTGCTGACTGACTCCTG,0.909
18,AATTTCAGTATTAATGTCAAACTGATCAGA,1.8
19,TCCTGATCCCTGAGGTCGGGGCCTGGTCTG,0.856
20,TTATTTGAACACAGTTCGAACAGTTGGCCA,1.78
21,GGACCCGCGCAGCCAATAGGCGAGGACGCA,-1.34
22,CCCATCCAAAGGTCAGCAATCTCAAAGACT,3.51
23,AATGACATTCAGCAACTGGGTTCAGTTACG,0.966
24,TGTACTGTAAACCTAGGTAGTGGACTCTAA,4.28
25,ATCAAAGGTAGATGAATCCACAAAGATAAG,-1.1

row,Sequence,binding signal (log2 normalized intensity)
1,TCATTTACAGAATTTCTCAGATGCCAGCTA,-1.53
2,CTTTTGCCCCCAGGCTGCAAACCTGTACAG,3.7
3,GTTGATCTGGATGCCTCACCTGGCAAGGCA,-1.28
4,ATTACTGCACCCCCTTCCCACCTGCTGTCC,5.02
5,CATTTCAAGGCTGGCTGAGTTCCCTTACAG,-1.27
6,ATCTTTTTACTGAGACTTAACAGTCACTCA,-1.24
7,TGACTTCTTTCGCTGTAGAAAGTGGTTTCA,0.357
8,TCCTAGAGAAAGGGGCTTAGGGAGGGTGAA,-1.21
9,GGTGTGGTTAATGATTATGCCTCTGTGACC,2.59
10,TCTTTCAAGATAACAAGGCAAACTTTATCA,-0.554
11,AACCAAAGGAATTTAGCCTTTAACCTGCAG,2.61
12,CGCTGCGGGTCACGTGCCGCTGCGGGTCAC,2.61
13,TGAAATTCTGGACTTTCAACAGAGGGCCTC,3.56
14,CTCACCTCTGGCCAGAGAGATGTCAGCCCA,0.58
15,AGCGGGCTTAACTAGGAGCCTGCACGCCTG,-1.3
16,AAGGGAGCAAAGTGCATTTGATAAGGGTAT,3.12
17,GGTAGGCAGCCTCTGAGATGGACTCCAGTG,2.82
18,TTGCCTAAGACATGCTCGCAGCTGCATAGA,-1.21
19,CGGATGGCCGTGGGTGGAAGGAAAAGAGGA,-1.28
20,AGAAAAAAATGAGTCACAATATCAGTCTTT,-0.445
